± gives the standard deviation of the averaged measurements. Restriction of a single-cycle SIVsab GFP reporter by TRIM5α v1-loop variants in CRFK cells. Human variants: read share among cells still uninfected after two challenges over input, higher = gained restriction. Rhesus variants: share among infected cells over input, higher = lost restriction. Reporter dose not given per row. No active / inactive call per row; the paper calls a change when both replicates lie above its controls (mean + 2 SD of stop or wild-type variants, or the top frameshift score). Residues outside the varied loop are taken from Swiss-Prot. The paper reads the human single-substitution scores as noise; they and the rhesus combinations repeat poorly (rank correlation 0.3 to 0.4), indel scores repeat only for the top variants, rhesus substitutions well (0.9).

The text below walks through data of the supplement of paper PMC12230231.

The first series relates to SIVsab (simian immunodeficiency virus of sabaeus monkeys), single-cycle GFP reporter, in CRFK cells. Kind of series: enrichment among uninfected cells over input (fold); higher = stronger restriction. Conditions: library: human / rhesus combinations. The method, then:
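Pools of CRFK cells expressing variants of the TRIM5α v1 loop were challenged with the single-cycle reporter, sorted by GFP and sequenced; mean of two replicates.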
As for “MASGILVNVKEEVTCPICLELLTQPLSLDCGHSFCQACLTANHKKSMLDKGESSCPVCRISYQPENIRPNRHVANIVEKLREVKLSPEGQKVDHCARHGEKLLLFCQEDGKVICWLCERSQEHRGHHTFLTEEVAREYQVKLQAALEMLRQKQQEAEELEADIREEKASWKTQIQYDKTNVLADFEQLRDILDWEESNELQNLEKEEEDILKSLTNSETEMVQQTQSLRELISDLEHRLQGSVMELLQGVDGVIKRTENVTLKKPETFPKNQRRVFRAPDLKGMLEVFRELTDVRRYWVDVTVAPNNISCAVISEDKRQVSSPKPQIIYGAPGTRYTFQSLTNFNYCTGILGSQSITSGKHYWEVDVSKKTAWILGVCAGFQPDAMCNIEKNENYQPKYGYWVIGLEEGVKCSAFQDSSFHTPSVPFIVPLSVIICPDRVGVFLDYEACTVSFFNITNHGFLIYKFSHCSFSQPVFPYLNPRKCGVPMTLCSPSS [human TRIM5α, 330-340 = GAPGTRYTFQSLT]”, the enrichment was found to be 0.162 ± 0.13.
Still for that read-out and setting: for “MASGILVNVKEEVTCPICLELLTQPLSLDCGHSFCQACLTANHKKSMLDKGESSCPVCRISYQPENIRPNRHVANIVEKLREVKLSPEGQKVDHCARHGEKLLLFCQEDGKVICWLCERSQEHRGHHTFLTEEVAREYQVKLQAALEMLRQKQQEAEELEADIREEKASWKTQIQYDKTNVLADFEQLRDILDWEESNELQNLEKEEEDILKSLTNSETEMVQQTQSLRELISDLEHRLQGSVMELLQGVDGVIKRTENVTLKKPETFPKNQRRVFRAPDLKGMLEVFRELTDVRRYWVDVTVAPNNISCAVISEDKRQVSSPKPQIIYGAPGTRYTFQSLVNFNYCTGILGSQSITSGKHYWEVDVSKKTAWILGVCAGFQPDAMCNIEKNENYQPKYGYWVIGLEEGVKCSAFQDSSFHTPSVPFIVPLSVIICPDRVGVFLDYEACTVSFFNITNHGFLIYKFSHCSFSQPVFPYLNPRKCGVPMTLCSPSS [human TRIM5α, 330-340 = GAPGTRYTFQSLV]” the value was 0.258 ± 0.11.
On the same count and under the same terms, for “MASGILVNVKEEVTCPICLELLTQPLSLDCGHSFCQACLTANHKKSMLDKGESSCPVCRISYQPENIRPNRHVANIVEKLREVKLSPEGQKVDHCARHGEKLLLFCQEDGKVICWLCERSQEHRGHHTFLTEEVAREYQVKLQAALEMLRQKQQEAEELEADIREEKASWKTQIQYDKTNVLADFEQLRDILDWEESNELQNLEKEEEDILKSLTNSETEMVQQTQSLRELISDLEHRLQGSVMELLQGVDGVIKRTENVTLKKPETFPKNQRRVFRAPDLKGMLEVFRELTDVRRYWVDVTVAPNNISCAVISEDKRQVSSPKPQIIYGAPGTRYTFQTFTNFNYCTGILGSQSITSGKHYWEVDVSKKTAWILGVCAGFQPDAMCNIEKNENYQPKYGYWVIGLEEGVKCSAFQDSSFHTPSVPFIVPLSVIICPDRVGVFLDYEACTVSFFNITNHGFLIYKFSHCSFSQPVFPYLNPRKCGVPMTLCSPSS [human TRIM5α, 330-340 = GAPGTRYTFQTFT]” the value was 0.09 ± 0.033.
For the sequence “MASGILVNVKEEVTCPICLELLTQPLSLDCGHSFCQACLTANHKKSMLDKGESSCPVCRISYQPENIRPNRHVANIVEKLREVKLSPEGQKVDHCARHGEKLLLFCQEDGKVICWLCERSQEHRGHHTFLTEEVAREYQVKLQAALEMLRQKQQEAEELEADIREEKASWKTQIQYDKTNVLADFEQLRDILDWEESNELQNLEKEEEDILKSLTNSETEMVQQTQSLRELISDLEHRLQGSVMELLQGVDGVIKRTENVTLKKPETFPKNQRRVFRAPDLKGMLEVFRELTDVRRYWVDVTVAPNNISCAVISEDKRQVSSPKPQIIYGAPGTRYTFQTFVNFNYCTGILGSQSITSGKHYWEVDVSKKTAWILGVCAGFQPDAMCNIEKNENYQPKYGYWVIGLEEGVKCSAFQDSSFHTPSVPFIVPLSVIICPDRVGVFLDYEACTVSFFNITNHGFLIYKFSHCSFSQPVFPYLNPRKCGVPMTLCSPSS [human TRIM5α, 330-340 = GAPGTRYTFQTFV]”, the enrichment came to 0.0795 ± 0.06.
Same read-out and setting: next, “MASGILVNVKEEVTCPICLELLTQPLSLDCGHSFCQACLTANHKKSMLDKGESSCPVCRISYQPENIRPNRHVANIVEKLREVKLSPEGQKVDHCARHGEKLLLFCQEDGKVICWLCERSQEHRGHHTFLTEEVAREYQVKLQAALEMLRQKQQEAEELEADIREEKASWKTQIQYDKTNVLADFEQLRDILDWEESNELQNLEKEEEDILKSLTNSETEMVQQTQSLRELISDLEHRLQGSVMELLQGVDGVIKRTENVTLKKPETFPKNQRRVFRAPDLKGMLEVFRELTDVRRYWVDVTVAPNNISCAVISEDKRQVSSPKPQIIYGAPGTRYTFQTLTNFNYCTGILGSQSITSGKHYWEVDVSKKTAWILGVCAGFQPDAMCNIEKNENYQPKYGYWVIGLEEGVKCSAFQDSSFHTPSVPFIVPLSVIICPDRVGVFLDYEACTVSFFNITNHGFLIYKFSHCSFSQPVFPYLNPRKCGVPMTLCSPSS [human TRIM5α, 330-340 = GAPGTRYTFQTLT]”: 0.0236 ± 0.033.
On the same count and under the same terms, for “MASGILVNVKEEVTCPICLELLTQPLSLDCGHSFCQACLTANHKKSMLDKGESSCPVCRISYQPENIRPNRHVANIVEKLREVKLSPEGQKVDHCARHGEKLLLFCQEDGKVICWLCERSQEHRGHHTFLTEEVAREYQVKLQAALEMLRQKQQEAEELEADIREEKASWKTQIQYDKTNVLADFEQLRDILDWEESNELQNLEKEEEDILKSLTNSETEMVQQTQSLRELISDLEHRLQGSVMELLQGVDGVIKRTENVTLKKPETFPKNQRRVFRAPDLKGMLEVFRELTDVRRYWVDVTVAPNNISCAVISEDKRQVSSPKPQIIYGAPGTRYTFQTLVNFNYCTGILGSQSITSGKHYWEVDVSKKTAWILGVCAGFQPDAMCNIEKNENYQPKYGYWVIGLEEGVKCSAFQDSSFHTPSVPFIVPLSVIICPDRVGVFLDYEACTVSFFNITNHGFLIYKFSHCSFSQPVFPYLNPRKCGVPMTLCSPSS [human TRIM5α, 330-340 = GAPGTRYTFQTLV]” the value was 0.491 ± 0.055.

The same series, now with this note: library: insertions and deletions.
With “MASGILVNVKEEVTCPICLELLTQPLSLDCGHSFCQACLTANHKKSMLDKGESSCPVCRISYQPENIRPNRHVANIVEKLREVKLSPEGQKVDHCARHGEKLLLFCQEDGKVICWLCERSQEHRGHHTFLTEEVAREYQVKLQAALEMLRQKQQEAEELEADIREEKASWKTQIQYDKTNVLADFEQLRDILDWEESNELQNLEKEEEDILKSLTNSETEMVQQTQSLRELISDLEHRLQGSVMELLQGVDGVIKRTENVTLKKPETFPKNQRRVFRAPDLKGMLEVFRELTDVRRYWVDVTVAPNNISCAVISEDKRQVSSPKPQIIYGAPQIIYGARGTRYQTFVNFNYCTGILGSQSITSGKHYWEVDVSKKTAWILGVCAGFQPDAMCNIEKNENYQPKYGYWVIGLEEGVKCSAFQDSSFHTPSVPFIVPLSVIICPDRVGVFLDYEACTVSFFNITNHGFLIYKFSHCSFSQPVFPYLNPRKCGVPMTLCSPSS [human TRIM5α, 7-codon duplication at 325]”, the enrichment was found to be 0.0915 ± 0.12.
In turn, “MASGILVNVKEEVTCPICLELLTQPLSLDCGHSFCQACLTANHKKSMLDKGESSCPVCRISYQPENIRPNRHVANIVEKLREVKLSPEGQKVDHCARHGEKLLLFCQEDGKVICWLCERSQEHRGHHTFLTEEVAREYQVKLQAALEMLRQKQQEAEELEADIREEKASWKTQIQYDKTNVLADFEQLRDILDWEESNELQNLEKEEEDILKSLTNSETEMVQQTQSLRELISDLEHRLQGSVMELLQGVDGVIKRTENVTLKKPETFPKNQRRVFRAPDLKGMLEVFRELTDVRRYWVDVTVAPNNISCAVISEDKRQVSSPKPQIIYGAQIIYGARGTRYQTFVNFNYCTGILGSQSITSGKHYWEVDVSKKTAWILGVCAGFQPDAMCNIEKNENYQPKYGYWVIGLEEGVKCSAFQDSSFHTPSVPFIVPLSVIICPDRVGVFLDYEACTVSFFNITNHGFLIYKFSHCSFSQPVFPYLNPRKCGVPMTLCSPSS [human TRIM5α, 6-codon duplication at 326]” came in with an enrichment of 0.2918 ± 0.0029.
On the same count and under the same terms, next, “MASGILVNVKEEVTCPICLELLTQPLSLDCGHSFCQACLTANHKKSMLDKGESSCPVCRISYQPENIRPNRHVANIVEKLREVKLSPEGQKVDHCARHGEKLLLFCQEDGKVICWLCERSQEHRGHHTFLTEEVAREYQVKLQAALEMLRQKQQEAEELEADIREEKASWKTQIQYDKTNVLADFEQLRDILDWEESNELQNLEKEEEDILKSLTNSETEMVQQTQSLRELISDLEHRLQGSVMELLQGVDGVIKRTENVTLKKPETFPKNQRRVFRAPDLKGMLEVFRELTDVRRYWVDVTVAPNNISCAVISEDKRQVSSPKPQIIYGAQTFVNFNYCTGILGSQSITSGKHYWEVDVSKKTAWILGVCAGFQPDAMCNIEKNENYQPKYGYWVIGLEEGVKCSAFQDSSFHTPSVPFIVPLSVIICPDRVGVFLDYEACTVSFFNITNHGFLIYKFSHCSFSQPVFPYLNPRKCGVPMTLCSPSS [human TRIM5α, 5-codon deletion at 332]”: 0.926 ± 0.56.
In turn, “MASGILVNVKEEVTCPICLELLTQPLSLDCGHSFCQACLTANHKKSMLDKGESSCPVCRISYQPENIRPNRHVANIVEKLREVKLSPEGQKVDHCARHGEKLLLFCQEDGKVICWLCERSQEHRGHHTFLTEEVAREYQVKLQAALEMLRQKQQEAEELEADIREEKASWKTQIQYDKTNVLADFEQLRDILDWEESNELQNLEKEEEDILKSLTNSETEMVQQTQSLRELISDLEHRLQGSVMELLQGVDGVIKRTENVTLKKPETFPKNQRRVFRAPDLKGMLEVFRELTDVRRYWVDVTVAPNNISCAVISEDKRQVSSPKPQIIYGARARGTRYQTFVNFNYCTGILGSQSITSGKHYWEVDVSKKTAWILGVCAGFQPDAMCNIEKNENYQPKYGYWVIGLEEGVKCSAFQDSSFHTPSVPFIVPLSVIICPDRVGVFLDYEACTVSFFNITNHGFLIYKFSHCSFSQPVFPYLNPRKCGVPMTLCSPSS [human TRIM5α, 2-codon duplication at 331]” came in with an enrichment of 0.636 ± 0.25.
With “MASGILVNVKEEVTCPICLELLTQPLSLDCGHSFCQACLTANHKKSMLDKGESSCPVCRISYQPENIRPNRHVANIVEKLREVKLSPEGQKVDHCARHGEKLLLFCQEDGKVICWLCERSQEHRGHHTFLTEEVAREYQVKLQAALEMLRQKQQEAEELEADIREEKASWKTQIQYDKTNVLADFEQLRDILDWEESNELQNLEKEEEDILKSLTNSETEMVQQTQSLRELISDLEHRLQGSVMELLQGVDGVIKRTENVTLKKPETFPKNQRRVFRAPDLKGMLEVFRELTDVRRYWVDVTVAPNNISCAVISEDKRQVSSPKPQIIYGARFNYCTGILGSQSITSGKHYWEVDVSKKTAWILGVCAGFQPDAMCNIEKNENYQPKYGYWVIGLEEGVKCSAFQDSSFHTPSVPFIVPLSVIICPDRVGVFLDYEACTVSFFNITNHGFLIYKFSHCSFSQPVFPYLNPRKCGVPMTLCSPSS [human TRIM5α, 9-codon deletion at 333]”, the enrichment was 1.39 ± 0.8.
Sequence “MASGILVNVKEEVTCPICLELLTQPLSLDCGHSFCQACLTANHKKSMLDKGESSCPVCRISYQPENIRPNRHVANIVEKLREVKLSPEGQKVDHCARHGEKLLLFCQEDGKVICWLCERSQEHRGHHTFLTEEVAREYQVKLQAALEMLRQKQQEAEELEADIREEKASWKTQIQYDKTNVLADFEQLRDILDWEESNELQNLEKEEEDILKSLTNSETEMVQQTQSLRELISDLEHRLQGSVMELLQGVDGVIKRTENVTLKKPETFPKNQRRVFRAPDLKGMLEVFRELTDVRRYWVDVTVAPNNISCAVISEDKRQVSSPKPQIIYGARFVNFNYCTGILGSQSITSGKHYWEVDVSKKTAWILGVCAGFQPDAMCNIEKNENYQPKYGYWVIGLEEGVKCSAFQDSSFHTPSVPFIVPLSVIICPDRVGVFLDYEACTVSFFNITNHGFLIYKFSHCSFSQPVFPYLNPRKCGVPMTLCSPSS [human TRIM5α, 6-codon deletion at 333]” showed an enrichment of 1.72 ± 1.9.
